This is one part of the list.
What was measured:
Assay in all cases: glycan array binding signal (z-score within array); higher = stronger binding
Details in all cases: glycan notation: IUPAC condensed, linker removed
[1] = target: GlcNAc(b1-2)[GlcNAc(b1-4)]Man(a1-3)[GlcNAc(b1-4)][GlcNAc(b1-2)Man(a1-6)]Man(b1-4)GlcNAc(b1-4)GlcNAc
In short: (§1)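 Negative Z-scores can be read as non-binding. The Z-score is calculated within each array and then averaged across arrays of one protein sequence at different concentrations or buffers and across linkers. Arrays, 3228 in all, were curated from the Consortium for Functional Glycomics database and kept only where the protein sequence was available.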

[2] = target: GlcNAc(b1-2)[GlcNAc(b1-4)]Man(a1-3)[GlcNAc(b1-4)][GlcNAc(b1-2)[GlcNAc(b1-6)]Man(a1-6)]Man(b1-4)GlcNAc(b1-4)GlcNAc
In short: as §1

[3] = target: GlcNAc(b1-2)[GlcNAc(b1-4)]Man(a1-3)[GlcNAc(b1-4)][GlcNAc(b1-2)[GlcNAc(b1-6)]Man(a1-6)]Man(b1-4)GlcNAc(b1-4)[Fuc(a1-6)]GlcNAc
In short: as §1

[4] = target: GlcNAc(b1-2)[GlcNAc(b1-6)]Man(a1-6)[GlcNAc(b1-2)Man(a1-3)]Man(b1-4)GlcNAc(b1-4)GlcNAc
In short: as §1

[5] = target: GlcNAc(b1-2)[GlcNAc(b1-6)]Man(a1-6)[GlcNAc(b1-2)Man(a1-3)]Man(b1-4)GlcNAc(b1-4)[Fuc(a1-6)]GlcNAc
In short: as §1

[6] = target: GlcNAc(b1-2)[GlcNAc(b1-6)]Man(a1-6)[GlcNAc(b1-4)][GlcNAc(b1-2)Man(a1-3)]Man(b1-4)GlcNAc(b1-4)GlcNAc
In short: as §1

GlcNAc(b1-3)Fuc = target: GlcNAc(b1-3)Fuc
In short: as §1

GlcNAc(b1-3)Gal = target: GlcNAc(b1-3)Gal
In short: as §1

[7] = target: GlcNAc(b1-3)Gal(b1-3)GalNAc
In short: as §1

GlcNAc(b1-3)Gal(b1-4)Glc = target: GlcNAc(b1-3)Gal(b1-4)Glc
In short: as §1

[8] = target: GlcNAc(b1-3)Gal(b1-4)GlcNAc
In short: as §1

[9] = target: GlcNAc(b1-3)Gal(b1-4)GlcNAc(b1-2)Man(a1-3)[GlcNAc(b1-3)Gal(b1-4)GlcNAc(b1-2)Man(a1-6)]Man(b1-4)GlcNAc(b1-4)GlcNAc
In short: as §1

[10] = target: GlcNAc(b1-3)Gal(b1-4)GlcNAc(b1-2)Man(a1-3)[GlcNAc(b1-3)Gal(b1-4)GlcNAc(b1-2)Man(a1-6)]Man(b1-4)GlcNAc(b1-4)[Fuc(a1-6)]GlcNAc
In short: as §1

[11] = target: GlcNAc(b1-3)Gal(b1-4)GlcNAc(b1-2)[GlcNAc(b1-3)Gal(b1-4)GlcNAc(b1-6)]Man(a1-6)[GlcNAc(b1-3)Gal(b1-4)GlcNAc(b1-2)Man(a1-3)]Man(b1-4)GlcNAc(b1-4)GlcNAc
In short: as §1

[12] = target: GlcNAc(b1-3)Gal(b1-4)GlcNAc(b1-3)Gal(b1-4)GlcNAc
In short: as §1

[13] = target: GlcNAc(b1-3)Gal(b1-4)GlcNAc(b1-3)Gal(b1-4)GlcNAc(b1-2)Man(a1-3)[GlcNAc(b1-3)Gal(b1-4)GlcNAc(b1-3)Gal(b1-4)GlcNAc(b1-2)Man(a1-6)]Man(b1-4)GlcNAc(b1-4)GlcNAc
In short: as §1

[14] = target: GlcNAc(b1-3)Gal(b1-4)GlcNAc(b1-3)Gal(b1-4)GlcNAc(b1-2)Man(a1-3)[GlcNAc(b1-3)Gal(b1-4)GlcNAc(b1-3)Gal(b1-4)GlcNAc(b1-2)Man(a1-6)]Man(b1-4)GlcNAc(b1-4)[Fuc(a1-6)]GlcNAc
In short: as §1

[15] = target: GlcNAc(b1-3)Gal(b1-4)GlcNAc(b1-3)Gal(b1-4)GlcNAc(b1-2)[GlcNAc(b1-3)Gal(b1-4)GlcNAc(b1-3)Gal(b1-4)GlcNAc(b1-6)]Man(a1-6)[GlcNAc(b1-3)Gal(b1-4)GlcNAc(b1-3)Gal(b1-4)GlcNAc(b1-2)Man(a1-3)]Man(b1-4)GlcNAc(b1-4)[Fuc(a1-6)]GlcNAc
In short: as §1

[16] = target: GlcNAc(b1-3)Gal(b1-4)GlcNAc(b1-3)Gal(b1-4)GlcNAc(b1-3)Gal(b1-4)GlcNAc(b1-2)Man(a1-3)[GlcNAc(b1-3)Gal(b1-4)GlcNAc(b1-3)Gal(b1-4)GlcNAc(b1-3)Gal(b1-4)GlcNAc(b1-2)Man(a1-6)]Man(b1-4)GlcNAc(b1-4)GlcNAc
In short: as §1

[17] = target: GlcNAc(b1-3)Gal(b1-4)GlcNAc(b1-3)Gal(b1-4)GlcNAc(b1-3)Gal(b1-4)GlcNAc(b1-2)Man(a1-3)[GlcNAc(b1-3)Gal(b1-4)GlcNAc(b1-3)Gal(b1-4)GlcNAc(b1-3)Gal(b1-4)GlcNAc(b1-2)Man(a1-6)]Man(b1-4)GlcNAc(b1-4)[Fuc(a1-6)]GlcNAc
In short: as §1

[18] = target: GlcNAc(b1-3)Gal(b1-4)GlcNAc(b1-3)Gal(b1-4)GlcNAc(b1-3)Gal(b1-4)GlcNAc(b1-2)[GlcNAc(b1-3)Gal(b1-4)GlcNAc(b1-3)Gal(b1-4)GlcNAc(b1-3)Gal(b1-4)GlcNAc(b1-6)]Man(a1-6)[GlcNAc(b1-3)Gal(b1-4)GlcNAc(b1-3)Gal(b1-4)GlcNAc(b1-3)Gal(b1-4)GlcNAc(b1-2)Man(a1-3)]Man(b1-4)GlcNAc(b1-4)[Fuc(a1-6)]GlcNAc
In short: as §1

[19] = target: GlcNAc(b1-3)Gal(b1-4)GlcNAc(b1-3)Gal(b1-4)GlcNAc(b1-3)Gal(b1-4)GlcNAc(b1-3)Gal(b1-4)GlcNAc(b1-2)Man(a1-3)[GlcNAc(b1-3)Gal(b1-4)GlcNAc(b1-3)Gal(b1-4)GlcNAc(b1-3)Gal(b1-4)GlcNAc(b1-3)Gal(b1-4)GlcNAc(b1-2)Man(a1-6)]Man(b1-4)GlcNAc(b1-4)GlcNAc
In short: as §1

[20] = target: GlcNAc(b1-3)Gal(b1-4)GlcNAc(b1-3)Gal(b1-4)GlcNAc(b1-3)Gal(b1-4)GlcNAc(b1-3)Gal(b1-4)GlcNAc(b1-2)Man(a1-3)[GlcNAc(b1-3)Gal(b1-4)GlcNAc(b1-3)Gal(b1-4)GlcNAc(b1-3)Gal(b1-4)GlcNAc(b1-3)Gal(b1-4)GlcNAc(b1-2)Man(a1-6)]Man(b1-4)GlcNAc(b1-4)[Fuc(a1-6)]GlcNAc
In short: as §1

[21] = target: GlcNAc(b1-3)Gal(b1-4)GlcNAc(b1-3)Gal(b1-4)GlcNAc(b1-3)Gal(b1-4)GlcNAc(b1-3)Gal(b1-4)GlcNAc(b1-2)[GlcNAc(b1-3)Gal(b1-4)GlcNAc(b1-3)Gal(b1-4)GlcNAc(b1-3)Gal(b1-4)GlcNAc(b1-3)Gal(b1-4)GlcNAc(b1-6)]Man(a1-6)[GlcNAc(b1-3)Gal(b1-4)GlcNAc(b1-3)Gal(b1-4)GlcNAc(b1-3)Gal(b1-4)GlcNAc(b1-3)Gal(b1-4)GlcNAc(b1-2)Man(a1-3)]Man(b1-4)GlcNAc(b1-4)[Fuc(a1-6)]GlcNAc
In short: as §1

[22] = target: GlcNAc(b1-3)Gal(b1-4)GlcNAc(b1-3)Gal(b1-4)GlcNAc(b1-3)GalNAc
In short: as §1

[23] = target: GlcNAc(b1-3)Gal(b1-4)GlcNAc(b1-3)GalNAc
In short: as §1

[24] = target: GlcNAc(b1-3)Gal(b1-4)GlcNAc(b1-3)[GlcNAc(b1-3)Gal(b1-4)GlcNAc(b1-3)]GalNAc
In short: as §1

[25] = target: GlcNAc(b1-3)Gal(b1-4)GlcNAc(b1-6)[Gal(b1-3)]GalNAc
In short: as §1

[26] = target: GlcNAc(b1-3)Gal(b1-4)GlcNAc(b1-6)[GlcNAc(b1-3)Gal(b1-3)]GalNAc
In short: as §1

[27] = target: GlcNAc(b1-3)Gal(b1-4)GlcNAc(b1-6)[GlcNAc(b1-3)]Gal(b1-4)GlcNAc
In short: as §1

GlcNAc(b1-3)GalNAc = target: GlcNAc(b1-3)GalNAc
In short: as §1

GlcNAc(b1-3)Man = target: GlcNAc(b1-3)Man
In short: as §1

[28] = target: GlcNAc(b1-3)[GlcNAc(b1-4)][GlcNAc(b1-6)]GlcNAc
In short: as §1

[29] = target: GlcNAc(b1-3)[GlcNAc(b1-6)]Gal(b1-4)GlcNAc
In short: as §1

[30] = target: GlcNAc(b1-3)[GlcNAc(b1-6)]GalNAc
In short: as §1

[31] = target: GlcNAc(b1-4)Gal(b1-4)GlcNAc
In short: as §1

GlcNAc(b1-4)GlcNAc = target: GlcNAc(b1-4)GlcNAc
In short: as §1

[32] = target: GlcNAc(b1-4)GlcNAc(b1-4)GlcNAc
In short: as §1

B1: SRA-1 (Homo sapiens), P21757 (protein)
chain: MEQWDHFHNQQEDTDSCSESVKFDARSMTALLPPNPKNSPSLQEKLKSFKAALIALYLLVFAVLIPLIGIVAAQLLKWETKNCSVSSTNANDITQSLTGKGNDSEEEMRFQEVFMEHMSNMEKRIQHILDMEANLMDTEHFQNFSMTTDQRFNDILLQLSTLFSSVQGHGNAIDEISKSLISLNTTLLDLQLNIENLNGKIQENTFKQQEEISKLEERVYNVSAEIMAMKEEQVHLEQEIKGEVKVLNNITNDLRLKDWEHSQTLRNITLIQGPPGPPGEKGDRGPTGESGPRGFPGPIGPPGLKGDRGAIGFPGSRGLPGYAGRPGNSGPKGQKGEKGSGNTLTPFTKVRLVGGSGPHEGRVEILHSGQWGTICDDRWEVRVGQVVCRSLGYPGVQAVHKAAHFGQGTGPIWLNEVFCFGRESSIEECKIRQWGTRACSHSEDAGVTCTL
With B1 the “glycan array binding signal (z-score)” value [1] was 0.021, the “glycan array binding signal (z-score)” value [2] was -0.505 and the “glycan array binding signal (z-score)” value [3] was -0.311. For the same binder, the “glycan array binding signal (z-score)” value [4] was -0.647, the “glycan array binding signal (z-score)” value [5] was 0.625 and the “glycan array binding signal (z-score)” value [6] was -0.219. The “glycan array binding signal (z-score)” value (GlcNAc(b1-3)Fuc) was 0.485, the “glycan array binding signal (z-score)” value (GlcNAc(b1-3)Gal) was -0.179 and the “glycan array binding signal (z-score)” value [7] was -0.191. For the same binder, the “glycan array binding signal (z-score)” value (GlcNAc(b1-3)Gal(b1-4)Glc) was -0.047, the “glycan array binding signal (z-score)” value [8] was -0.316 and the “glycan array binding signal (z-score)” value [9] was -0.204. For the same binder, the “glycan array binding signal (z-score)” value [10] was -0.201, the “glycan array binding signal (z-score)” value [11] was 0.853 and the “glycan array binding signal (z-score)” value [12] was -0.116. For the same binder, the “glycan array binding signal (z-score)” value [13] was 0.543, the “glycan array binding signal (z-score)” value [14] was 0.426 and the “glycan array binding signal (z-score)” value [15] was 0.007. The “glycan array binding signal (z-score)” value [16] was 0.127, the “glycan array binding signal (z-score)” value [17] was 0.243 and the “glycan array binding signal (z-score)” value [18] was 0.731. For the same binder, the “glycan array binding signal (z-score)” value [19] was 0.642, the “glycan array binding signal (z-score)” value [20] was 0.021 and the “glycan array binding signal (z-score)” value [21] was -0.069. The “glycan array binding signal (z-score)” value [22] was 0.215, the “glycan array binding signal (z-score)” value [23] was -0.189 and the “glycan array binding signal (z-score)” value [24] was -0.281. The “glycan array binding signal (z-score)” value [25] was -0.168, the “glycan array binding signal (z-score)” value [26] was 0.86 and the “glycan array binding signal (z-score)” value [27] was 0.193. The “glycan array binding signal (z-score)” value (GlcNAc(b1-3)GalNAc) was -0.23, the “glycan array binding signal (z-score)” value (GlcNAc(b1-3)Man) was 0.353 and the “glycan array binding signal (z-score)” value [28] was -0.168. For the same binder, the “glycan array binding signal (z-score)” value [29] was -0.521, the “glycan array binding signal (z-score)” value [30] was -0.134 and the “glycan array binding signal (z-score)” value [31] was 0.193. The “glycan array binding signal (z-score)” value (GlcNAc(b1-4)GlcNAc) was 0.287 and the “glycan array binding signal (z-score)” value [32] was -0.361.

— the supplement of paper PMC8728848
